Measured values reported in PubChem BioAssay AID651820 (National Center for Advancing Translational Sciences (NCATS), 2012).
Values joined by “and” are separate entries in the source; they are usually repeats but may differ in a detail not shown here. Equal entries are not always repeated. Hit rate of the full screen: of about 340,000 compounds, about 12,000 (3.5%) were called active. The shares of active, inactive and inconclusive entries below differ from those in the screen. Calls come from the whole dose curve; as a rule, active = well fitted inhibition curve with a large enough effect; inconclusive = small, poorly fitted or top-dose-only effect, or another doubt; inactive = no such curve, though single readings can be large or run the other way. Potencies beside an inconclusive call are fits to weak or partial responses and may not hold up.

Assay: qHTS Assay for Inhibitors of Hepatitis C Virus (HCV)
Details: Huh7.5.1 HCVcc-Cre (HCVcc is cell-culture hepatitis C virus) infection, luciferase reporter, 44 h; activity change, negative = inhibition: at 41.8 µM (top of the series) unless noted
Outline: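 Infectious HCV cell culture screen: compound-treated cells (1,000/well, pre-plated 4 h) are infected with HCVcc-Cre at roughly 0.5 moi and grown 44 h. Infection is quantified by luciferase signal after 15 min substrate incubation at room temperature.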
% is set by controls: 0 for no effect and ±100 for the full control effect; potency is the fitted concentration of half-maximal effect; tags give direction and shape of the fitted curve.

Compound | Potency | activity change, negative = inhibition
NS(=O)(=O)c1cccc(NC(=O)COC(=O)c2cc([N+](=O)[O-])ccc2N2CCCC2)c1 | inconclusive: 6.31 µM [inhibitor, partial curve] | –
CC1CC(C)CN(CCCNC(=O)C2CCC(=O)N2C2CCCC2)C1 (stereo unspecified) | inactive | –
COc1cccc(-c2ccc(NC(=O)C3CCCN(Cc4cnn(C(C)C)c4)C3)cc2)c1 (stereo unspecified) | active: 11.2 µM | –
COc1ccc(N(C(=O)CCl)C(C(=O)NCCc2ccccc2)c2cccs2)cc1Cl (stereo unspecified) | active: 0.562 µM | –
CCOC(=O)C(NC(=O)Nc1ccccc1)(OCC)C(F)(F)F (stereo unspecified) | inconclusive: 3.98 µM [inhibitor, single point] | –
CCCn1c(C)cc(C(=O)COc2ccc(-c3nnco3)cc2)c1C | inconclusive: 6.31 µM [inhibitor, full curve, poor fit] | –
CC(C)(C)C(=O)Nc1ccc(C(=O)N/N=C/c2ccccc2OC(=O)c2ccc(Cl)cc2Cl)cc1 | active: 10 µM | –
Clc1ccc(-c2csc(Nc3cccnc3)n2)cc1 | inconclusive: 14.1 µM [inhibitor, partial curve, poor fit] | –
COc1ccc2[nH]c3c(N4CCN(Cc5ccc6c(c5)OCO6)CC4)ncnc3c2c1 | inconclusive: 6.31 µM [inhibitor, partial curve] | –
COc1ccc(NC(=S)N2CCN(S(=O)(=O)c3ccc(F)cc3)CC2)cc1OC | inactive | –
CC(=O)c1cccc(OCC(O)CNCCc2ccc(Cl)cc2)c1 (stereo unspecified) | inactive | –
COCCn1cc(C(=O)N2CCC3(CC2)OCCO3)c2c3ccccc3n(C)c2c1=O | inconclusive: 5.62 µM [inhibitor, single point] | –
CCCS(=O)(=O)N1CCC(C(=O)NC2CCC(C)CC2)CC1 (stereo unspecified) | inactive | –
COc1cccc(C(=O)CN2C(=O)C(C)(C)Oc3ccc(C(=O)N4CCCCCC4)cc32)c1 | inactive | –
CC[n+]1ccc(/C=C/c2ccc(N(C)C)cc2)c2ccccc21 | active: 4.47 µM | –
COc1ccc(-c2nc3ccccc3s2)cc1O | inconclusive: 20 µM [inhibitor, single point] | –
O=C1c2ccccc2C(Nc2ccc3c(c2)OCCO3)N1Cc1ccc2c(c1)OCO2 (stereo unspecified) | inconclusive: 15.8 µM [inhibitor, single point] and inconclusive: 31.6 µM [inhibitor, single point] | –
CCCCCN1C(=O)/C(=C/c2c(N3CCc4ccccc4C3)nc3ccccn3c2=O)SC1=S | inconclusive: 31.6 µM [inhibitor, single point] | –
O=C(Nc1ccccc1N1CCOCC1)C1=NN(c2ccccc2)C(=O)CC1 | inactive | –
Cc1ccc(NC(=S)NNC(=O)Nc2ccccc2)cc1 | inactive | –
O=C(CN1CCN(c2ccccc2)CC1)NC(=O)NCc1ccco1 | inactive | –
Cc1cc(C(=O)OCC(=O)N2CC(C)OC(C)C2)ccc1[N+](=O)[O-] (stereo unspecified) | inactive | –
COc1ccc(Cl)cc1NC(=O)c1cc(C)no1 | active: 10 µM | –
Cc1ccc(CCNC(=O)CN2C(=O)COc3ccccc32)cc1 | inconclusive: 12.6 µM [inhibitor, single point] | –

Compound | Potency | activity change, negative = inhibition
CCC(CC)=NNc1cccc([N+](=O)[O-])c1 | inconclusive: 10 µM [inhibitor, partial curve] | –
O=C(Nc1ccc([N+](=O)[O-])cc1)/C(=C/c1cccc([N+](=O)[O-])c1)NC(=O)C1CCCCC1 | inconclusive: 3.98 µM [inhibitor, partial curve] | –
O=C(CSc1n[nH]c(-c2ccccn2)n1)Nc1ccc(F)cc1 | inconclusive: 11.2 µM [inhibitor, single point] | –
CC(=O)c1ccc(OC(=O)C2c3ccccc3Oc3ccccc32)cc1 | inactive | –
C[n+]1cn(/N=C/c2ccccc2)c2ccccc21 | inactive | –
Cc1cc(OCC(=O)Nc2ccc(S(=O)(=O)N3CCN(C)CC3)cc2)ccc1Cl | inconclusive: 20 µM [inhibitor, partial curve, poor fit] | –
Cc1nnc(SCC(=O)Nc2c(Cl)cccc2Cl)[nH]c1=O | inconclusive: 2.24 µM [inhibitor, full curve] | –
O=c1[nH]c(=S)c2c(n1-c1ccccc1)CCC2 | inconclusive: 5.62 µM [inhibitor, single point] | –
Cc1ccc(NS(=O)(=O)c2ccc(-c3cnc(C4CC4)o3)cc2)c(C)c1 | inconclusive: 7.94 µM [inhibitor, partial curve] | –
CSC1=NC2(CC(c3ccccc3)Oc3cc(O)ccc32)CC(C)(C)N1 (stereo unspecified) | inconclusive: 31.6 µM [inhibitor, single point] | –
COc1ccc(S(=O)(=O)Nc2ccccc2OC)cc1NC(=O)CC1CC2CCC1C2 (stereo unspecified) | active: 6.31 µM | –
C/C(Cn1nnc([N+](=O)[O-])n1)=N\NC(=O)c1ccc(O)cc1O | inconclusive: 0.316 µM [inhibitor, full curve, poor fit] | –
CCOc1cc(CNC2CCCC2)c(Cl)cc1OCC(=O)Nc1ccccc1 | inconclusive: 7.08 µM [inhibitor, partial curve] | –
O=C(O)CCc1ccc(-c2ccc(Cl)cc2)n1CC(=O)O | inactive | –
Cc1nc2ncnn2c(C)c1CCC(=O)Nc1ccc(S(=O)(=O)N2CCCCCC2)cc1 | inconclusive: 31.6 µM [inhibitor, single point] | –
O=C1OC(c2ccccc2)(c2cc(Br)ccc2O)c2ccccc21 (stereo unspecified) | inconclusive: 22.4 µM [inhibitor, single point] | –
CCS(=O)(=O)CCSC1OC(COC(C)=O)C(OC(C)=O)C(OC(C)=O)C1OC(C)=O (stereo unspecified) | inactive | –
O=C(c1cccs1)N1CCN(Cc2ccccc2)CC1 | inconclusive: 3.55 µM [inhibitor, single point] | –
CCCCCCCC/C=C\CCCCCCCC(=O)NCCc1ccc(O)c(O)c1 | inconclusive: 5.62 µM [inhibitor, single point] | –
Cc1ccc(NCCC(=O)c2cccc([N+](=O)[O-])c2)cc1 | inconclusive: 31.6 µM [inhibitor, single point] | –
C#CCOC(=O)c1ccccc1C(=O)O | inconclusive: 31.6 µM [inhibitor, single point] | –
CCN(CC(=O)Nc1cc(Cl)ccc1C)C(=O)c1nc2nc(C)cc(C)n2n1 | inconclusive: 3.55 µM [inhibitor, single point] | –
COc1ccc(C)cc1NC(=O)C(OC(=O)c1cccc(S(=O)(=O)N(C)c2ccccc2)c1)c1ccccc1 (stereo unspecified) | inconclusive: 1.78 µM [inhibitor, partial curve] | –
Cc1cc(C(F)(F)F)c(C#N)c(SCC(=O)Nc2nc3ccccc3s2)n1 | inconclusive: 0.316 µM [inhibitor, full curve, poor fit] | –

Compound | Potency | activity change, negative = inhibition
Cc1noc(C)c1CSc1ncnc2sc3c(c12)CCCCC3 | inconclusive: 31.6 µM [inhibitor, single point] | –
COc1cc(C(=O)N2CCCCC2)ccc1OCC(=O)Nc1ccc(F)cc1 | inconclusive: 15.8 µM [inhibitor, single point] | –
O=C(CSc1n[nH]c(=O)[nH]c1=O)Nc1ccc(Br)cc1Br | inactive | –
CCOc1ccc(-c2cn(S(=O)(=O)c3cccc4nsnc34)nc2N)cc1 | inconclusive: 14.1 µM [inhibitor, single point] | –
COc1ccc(-n2nc(C(=O)NCC(=O)N(C)Cc3ccccc3)c3ccccc3c2=O)cc1 | inconclusive: 20 µM [inhibitor, single point] | –
CC(=O)Oc1ccc(-c2csnn2)cc1 | inactive | –
COc1cccc(CC2(CO)CCCN(Cc3ccc(OC)c(C)c3OC)C2)c1 (stereo unspecified) | – | inconclusive: -31.9% [inhibitor]
O=C(O)Cc1sc(Nc2cccc3ccccc23)nc1-c1ccccc1 | inactive | –
CCc1ccc(CNc2ccc3c(c2)ncn3CC)cc1 | inconclusive: 7.94 µM [inhibitor, partial curve] | –
COc1ccc(NC(=O)C(C)N(c2ccc(C)cc2)S(C)(=O)=O)cc1 (stereo unspecified) | inconclusive: 31.6 µM [inhibitor, single point] | –
COc1ccc(C(=O)Nc2ccccc2N2CCCCC2)cc1[N+](=O)[O-] | inconclusive: 0.708 µM [inhibitor, partial curve] | –
CC(=O)c1c(C)[nH]c(C(=O)OCCOc2ccccc2)c1C | active: 8.91 µM | –
Cc1nc2cc(C(=O)O)ccc2s1 | inactive | –
C=CCn1c(SCc2ccc(C(=O)Nc3nccs3)cc2)nnc1-c1ccc(C)c(Cl)c1 | active: 8.91 µM | –
c1ccc(-c2nnc(-c3ccco3)o2)cc1 | inactive | –
COc1ccc(C(=O)NCC(=O)N2CC=C(c3ccccc3)CC2)cc1OC | inconclusive: 10 µM [inhibitor, partial curve] | –
NC1CCCCC1N=Cc1c(O)n(CCc2ccc(F)cc2)c(=O)[nH]c1=O (stereo unspecified) | inconclusive: 31.6 µM [inhibitor, single point] | –
COCC(=O)Nc1sc2c(c1C(=O)OC)C(C(=O)OC)CC2 (stereo unspecified) | inconclusive: 20 µM [inhibitor, single point] | –
C=CCn1cc(/C=C/c2cc[n+](C)cc2)c2ccccc21 | inconclusive: 1.26 µM [inhibitor, partial curve] | –
COc1ccc(S(=O)(=O)N2CCCCC2)cc1NC(=O)C1COc2ccccc2O1 (stereo unspecified) | inconclusive: 12.6 µM [inhibitor, single point] | –
Cc1nnc2sc(-c3ccc(NC(=O)c4ccc(-c5ccc(Cl)cc5Cl)o4)cc3)nn12 | inactive | –
CCCN(CC1CC1)C(=O)COC(=O)c1oc2ccc(OCC)cc2c1C | inconclusive: 31.6 µM [inhibitor, single point] | –
CCOC(=O)Cc1nnc(NC(=O)c2ccco2)s1 | inactive | –
